Legend:
[1] = Pharmacokinetic evaluation in rats (total antibodies, ELISA); format: in vivo; details: SD rats, intravenous, 10 mg/kg, Mean ± SD, ADCs of Example 3
Method: SD rats (160-180 g) (source: Laboratory Animal Operation Department, Shanghai Institute for Biomedical and Pharmaceutical Technologies) were randomly divided into 3 groups of 4 rats each, and were intravenously injected with 15F9-DDDXd, hz28G3-1.1-DDDXd, and hz28G3-1.1-DDDXd prepared in Example 3 at a dose of 10 mg/kg, respectively. Before and after the administration, SD rats were all not fasted and had free access to water.
About 0.2 mL of blood was collected from the jugular vein at 30 min, 2 h (± 1 min), 8 h (± 1 min), 24 h (± 5 min), 48 h (± 5 min), 4 d (± 10 min), 7 d (± 10 min), 10 d (± 10 min), 14 d (± 20 min), 21 d (± 20 min), or 28 d (± 20 min) after the administration, anticoagulated with EDTA-K2, and centrifuged at 4 °C for 10 min at 4000 rpm to separate the plasma.
An appropriate volume of the separated plasma was pipetted and diluted with a sample diluent (PBST containing 1% BSA) at a minimum dilution factor of (20-fold). For a sample that required a higher dilution, it was further diluted with a sample diluent containing 5% blank rat plasma. Then, the mixture was vortexed until it was mixed uniformly to obtain the test sample. The quantitative range of the detection method was 19.53125 ng/mL-2500 ng/mL. AffiniPure Goat Anti-Human IgG, F(ab')2 fragment specific (Jackson ImmunoResearch, 109-005-097) was diluted with the PBS buffer (pH 7.4) to a concentration of 1 µg/mL, added to a 96-well plate at 100 µL/well for coating, and incubated at 4 °C overnight. The 96-well plate was washed with PBST (PBS containing 0.5% of Tween-20). Then, the blocking buffer (PBST containing 1% of BSA) was added at 200 µL/well, and the plate was blocked at room temperature for 2-3 h. The blocking buffer was discarded. The diluted standard curve sample, the quality control sample, and the above test sample were added at 100 µL/well, and the mixture was incubated at room temperature for 2 h. After the 96-well plate was washed with PBST, Goat anti-Human Kappa Light Chain Cross-Adsorbed Secondary Antibody, HRP (Thermofisher, A18859) was added according to a volume ratio of 1:10,000, and the mixture was incubated at room temperature for 1 h. After the 96-well plate was washed with PBST, the TMB solution (Tiangen, Cat. No. PA107-01) was added at 100 µL/well, and the mixture was incubated at room temperature for 14 min in the dark. The reaction was stopped with 1 M H2SO4. The absorbance value was read using a Tecan Spark microplate reader at a wavelength of 450 nm/630 nm, and curve fitting was performed using a 4-parameter logistic fit.
Intravenous exposure of the anti-CLDN18.2 antibody-drug conjugates was evaluated by in vivo pharmacokinetics in rats and the mean pharmacokinetic parameters for total antibodies (including antibodies conjugated and unconjugated with cytotoxic drugs) in SD rats of each group were calculated, including drug peak concentration (Cmax), time to peak (Tmax), area under the concentration-time curve (AUC(0-t)), elimination half-life (t1/2), mean residence time (MRT(0-t)), and clearance (CL), as shown in Table 6 below.

[2] = system: CLDN18.2 highly-expressing BxPC-3 human pancreatic cancer; test: Pharmacodynamic evaluation in mouse xenograft tumor model of BxPC-3 human pancreatic cancer; format: in vivo, CB-17 SCID mice; details: BxPC-3 xenograft
Method: CLDN18.2 highly-expressing BxPC-3 human pancreatic cancer tumor blocks were subcutaneously inoculated by block implantation into the right axilla of SPF-grade female CB-17 SCID mice (source: Shanghai Slac Laboratory Animal Co., Ltd.). When the mean tumor volume reached about 200 mm^3, the animals were divided into 3 groups of 4 animals each, with the specific groups and doses shown in Table 9. Both hz28G3-1.3-DDDXd and 15F9-DDDXd were prepared in Example 3. After the determination of the DAR value according to Example 4, the DAR value of hz28G3-1.3-DDDXd was 7.4, and the DAR value of 15F9-DDDXd was 7.7. Table 9. Groups and doses
The day of grouping was day 0, and the tail vein administration was performed once on the day of grouping. The tumor volume was measured 2-3 times a week, and meanwhile, the mice were weighed and the data were recorded. The general behavior of the mice was observed and recorded every day. After the experiment was completed, the tumors were removed, weighed, and photographed.
The detection indexes and the calculation formulas are as follows: • Tumor volume TV (mm^3) = 1/2 × (a × b^2), where a represents the long diameter of the tumor, and b represents the short diameter of the tumor; • Relative tumor volume RTV = TVt/TV0, where TV0 represents the tumor volume on day 0, and TVt represents the tumor volume at each measurement; • Relative tumor proliferation rate T/C (%) = (TRTV/CRTV) × 100%, where TRTV represents RTV of the treatment group, and CRTV represents RTV of the vehicle control group; • Tumor growth inhibition rate TGI (%) = (1 - TW/TW0) × 100%; where TW represents the tumor weight of the treatment group, and TWo represents the tumor weight of the vehicle control group; • Weight change rate WCR (%) = (Wtt - Wt0)/Wt0 × 100%, wherein Wto is the body weight of the animal on day 0, and Wtt is the body weight of the animal at each measurement.

[3] = 5 mg/kg tail vein once on day 0, day 21

B1: hz28G3-1.3-DDDXd: anti-CLDN18.2 antibody hz28G3-1.3 conjugated with compound H (MC-GGFG-DDDXd); DAR 7.4 (Example 3), 7.6 (Example 5), 7.93 (Example 16) (conjugate)
heavy: QVQLVQSGAEVKKPGASVKVSCKTSGYSFTDYLMLWVRQAHGQSLEWMGNINPYYGRTTYALKFKGRVTMTVDRSTSTVYMELSSLRSEDTAVYYCARDGYSLRNAMDYWGQGTLVTVSS[human IgG1 constant region left out here]
light: DIVMTQSPDSLAVSLGERATINCKSSQSLFNSGNQKNYLAWYQQKPGQPPKLLIYGASTRESGVPDRFSGSGSGTDFTLTISSLQAEDVAVYYCQNAHSYPYTFGQGTKVEIKRTVAAPSVFIFPPSDEQLKSGTASVVCLLNNFYPREAKVQWKVDNALQSGNSQESVTEQDSKDSTYSLSSTLTLSKADYEKHKVYACEVTHQGLSSPVTKSFNRGEC
Q: With B1 as the molecule, how does the “AUC(0-21d)” value [1] read?
A: 578 ± 14.0 µg·days/mL

Q: What about the CL [1] of the same molecule?
A: 15.4 ± 0.378 mL/day/kg

Q: And the Cmax [1]?
A: 190 ± 8.13 µg/mL

Q: And the “MRT(0-21d)” value [1]?
A: 134 ± 1.27 h

Q: What about the Tmax [1] of the same molecule?
A: 0.499 ± 0 h

Q: What about the t1/2 [1] of the same molecule?
A: 187 ± 13.9 h

Q: And the toxicity ([2]; 5 mg/kg)?
A: no significant toxicity

Q: What about the “RTV (mean±SD)” value [2, 3] of the same molecule?
A: 2.7±1.1

Q: And the “TV (mean±SD)” value [2, 3]?
A: 694±572 mm3

Q: And the “Weight change rate (mean ± SD)” value [2, 3]?
A: 4.8±5.2%

Q: And the TGI ([2]; 5 mg/kg tail vein once on day 0, day 21, from tumor weight)?
A: 69.7%

Q: And the T/C ([2]; 5 mg/kg tail vein once on day 0, day 21, relative tumor proliferation rate)?
A: 33.8%

From patent EP4628104A1, “ANTI-CLDN18.2 ANTIBODY-DRUG CONJUGATE, AND PHARMACEUTICAL COMPOSITION THEREOF AND USE THEREOF” (priority 2022, dated 2024)
